In paper PMC4336329 (PLoS ONE, 2015):
The whole screen tested about 310,000 compounds, of which about 14,000 (4.5%) showed an effect of 50% or more. The effect is printed as a negative number. The list shows a part of the results. Where a SMILES comes first, the peptide text is derived from it. [ ]: non-standard residue; d: D form. The star is where a group is joined. ξ: configuration not given here. Tos = Cc1ccc(S(=O)(=O)*)cc1; ξP = O=C(O)C1CCCN1

molecular target: human ether-à-go-go-related gene (hERG) potassium channel (human, UniProt Q12809); assay: primary screen, population patch clamp on CHO cells stably expressing hERG
Sequence (Q12809 whole entry, looked up): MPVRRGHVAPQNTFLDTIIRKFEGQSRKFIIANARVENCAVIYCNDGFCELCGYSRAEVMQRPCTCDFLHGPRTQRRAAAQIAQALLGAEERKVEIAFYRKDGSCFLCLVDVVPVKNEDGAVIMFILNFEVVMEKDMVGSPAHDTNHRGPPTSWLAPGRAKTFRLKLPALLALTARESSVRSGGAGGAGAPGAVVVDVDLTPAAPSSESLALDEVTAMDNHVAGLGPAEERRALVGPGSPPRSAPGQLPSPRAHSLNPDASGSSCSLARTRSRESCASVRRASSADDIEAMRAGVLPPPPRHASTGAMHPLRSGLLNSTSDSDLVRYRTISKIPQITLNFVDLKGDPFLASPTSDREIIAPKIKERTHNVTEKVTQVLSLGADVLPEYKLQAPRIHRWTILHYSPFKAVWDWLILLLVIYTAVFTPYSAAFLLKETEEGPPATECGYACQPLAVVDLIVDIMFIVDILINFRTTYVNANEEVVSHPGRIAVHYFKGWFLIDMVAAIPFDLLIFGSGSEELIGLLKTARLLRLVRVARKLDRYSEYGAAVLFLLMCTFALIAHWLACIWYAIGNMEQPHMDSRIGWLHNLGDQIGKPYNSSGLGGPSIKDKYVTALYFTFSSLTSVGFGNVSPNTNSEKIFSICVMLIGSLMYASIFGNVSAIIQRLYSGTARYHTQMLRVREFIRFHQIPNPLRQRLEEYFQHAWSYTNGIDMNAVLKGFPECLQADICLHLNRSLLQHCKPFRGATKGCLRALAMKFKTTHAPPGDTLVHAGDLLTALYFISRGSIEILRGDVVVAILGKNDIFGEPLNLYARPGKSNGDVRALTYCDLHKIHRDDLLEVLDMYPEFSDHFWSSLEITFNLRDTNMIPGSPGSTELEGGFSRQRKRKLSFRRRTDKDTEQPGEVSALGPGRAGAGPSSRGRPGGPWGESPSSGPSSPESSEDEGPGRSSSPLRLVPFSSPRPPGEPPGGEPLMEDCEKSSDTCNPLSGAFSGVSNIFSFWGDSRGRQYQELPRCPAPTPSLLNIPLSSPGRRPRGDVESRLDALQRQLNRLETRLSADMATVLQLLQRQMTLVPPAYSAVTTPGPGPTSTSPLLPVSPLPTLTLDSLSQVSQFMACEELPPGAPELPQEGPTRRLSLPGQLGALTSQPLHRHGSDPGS
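Further: peak tail current of the secondary pulse compared with the same well before compound.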

Compound	hERG current change (%, negative = inhibition) at 10uM [%]
CCN(CC)C(=O)C(C)OC(=O)c1ccc(O)cc1 (stereo not drawn)	2.18
CCOC(CNC(=O)c1cccc([N+](=O)[O-])c1)OCC	15
Nc1ncc(Br)cc1S(=O)(=O)NCCC(=O)Nc1cccc(Cl)c1	-6.98
COCCN1CCN(C(=O)c2ccc3c(c2)S(=O)(=O)c2ccccc2C3=O)CC1	-1.17
Nc1cc(-c2cccc([N+](=O)[O-])c2)[nH]n1	-19.8
CCOc1ccc(OCc2cccc(C(=O)O)c2)cc1	8.48
CC(C)CCNC(=O)c1ccc(-n2cnc3cccnc32)cc1	-10.8
O=C(CCN1C(=O)c2ccccc2C1=O)C1=NN[C@@H]2C(=O)N(c3ccc(F)cc3)C(=O)[C@H]12	-5.4
N/C(=N\OC(=O)Cc1ccccc1)c1ccc(Br)cc1	5.5
Cc1ccc(OCC(=O)Nc2ccc(-c3nc4ncccc4o3)cc2)c(C)c1	17.8
O=C(COc1ccc2c3c(c(=O)oc2c1)CCCC3)N1CCN(c2ccc(F)cc2)CC1	-7.75
Cc1ccc(NC(=O)CSCC(=O)NCCc2ccccc2)c(C)c1	0.722
O=C(COC(=O)c1ccc(Br)cc1)NCCN1C(=O)CSC1=O	7.1
CCc1ccc(-c2cn3nc(C)c(C)nc3n2)cc1	-50.8
O=C(Cn1nnc2ccccc21)OCC(=O)c1ccc(F)cc1	1.04
Cc1ccc(N2C(=O)NC(=O)/C(=C\c3ccc([N+](=O)[O-])o3)C2=O)cc1	17.7
CCOc1ccc2c(C)c(C)c(=O)oc2c1OCC	-5.12
CCc1c(C)nc(SCC(=O)Nc2ccc3c(c2)OCCO3)[nH]c1=O	8.64
O=C(Nc1ccc(Cl)c(Cl)c1)Nc1nccs1	13.6
COc1ccnc(NCc2ccc(Cl)cc2)c1C#N	17.7
COc1ccc(OC)c2c1sc(=NC(=O)c1cccc(N3C(=O)CCC3=O)c1)n2C	11.7
Cc1cccc(-n2ncc3c(NC(C)C)ncnc32)c1	0.989

Compound	hERG current change (%, negative = inhibition) at 10uM [%]
COc1ccccc1NC(=O)Nc1nnc(C(C)C)s1	2.46
Cc1cccc(N2CCN(C(=O)CCNC(=O)Cn3ccc4ccccc4c3=O)CC2)c1C	-55.5
CC(=O)N(CCc1cccc(C)c1)Cc1cc2ccc(C)cc2[nH]c1=O	-19.7
CCOCC(=O)Nc1ccc(F)c(F)c1	-3.55
CCN(CC)C(=O)C1CCCN(C(=S)Nc2cccc3ccccc23)C1 (stereo not drawn)	13.7
CCC(C)c1ccc(OCC(=O)Nc2ccc3[nH]c(=O)[nH]c3c2)cc1 (stereo not drawn)	1.34
Cc1ccc(F)cc1NC(=O)c1ccc2c(c1)OCO2	1.94
O=C(O)COc1ccccc1-c1nc(-c2ccccc2)c(-c2ccccc2)[nH]1	5.22
COc1ccccc1NC(=O)C(CC(C)C)NC(=O)C1CCCCC1 (stereo not drawn)	-4.36
Cc1cc(-c2ccc(C)c(S(=O)(=O)N3CCN(c4ccccn4)CC3)c2)on1	-21.2
CC1CCN(CC(O)COCCOc2ccc(Br)cc2)CC1.Cl (stereo not drawn)	-64.3
COc1ccccc1N(Cc1cc(=O)[nH]c2ccccc12)C(=O)c1ccccc1	-11
COc1ccc(C(=O)NN2C(=O)C3C4C=CC(O4)C3C2=O)cc1 (stereo not drawn)	11
Cc1ccc(C(=O)Nc2cccc(C(F)(F)F)c2)cc1NC(=O)c1nccnc1N	8.61
Cc1ccc(S(=O)(=O)N2[C@@H](c3cccc(Cl)c3)C(C(=O)O)=CC[C@H]2c2cccc(C)c2)cc1	-13.2
CCOC(=O)C1C(=O)NC(N2CCN(CC)CC2)=NC1c1ccccc1 (stereo not drawn)	16.8
Cc1cc(C)n(CC(=O)Nc2cccc(C(F)(F)F)c2)n1	29.5
COC(=O)c1ccc(N2CCOCC2)c(NC(=O)c2cccnc2)c1	-4.85
COc1cc(OC)c(C2N(c3ccc(Cl)cc3)C(=O)C3CCCN32)cc1OC (stereo not drawn)	-0.307
CC(C)(C)N1C(=O)c2ccc(C(=O)Nc3cc(C(=O)O)cc(C(=O)O)c3)cc2C1=O	22.1
COCCNC(=O)C(c1ccc(C)cc1)N(C(=O)CCC(=O)Nc1ccccn1)C1CCCCC1 (stereo not drawn)	4.43
CCc1csc(CNC(=O)C2CCC(=O)N(Cc3cccc(F)c3)C2)n1 (stereo not drawn)	4.88

Compound	hERG current change (%, negative = inhibition) at 10uM [%]
CCn1nc(CC(=O)O)c2ccccc2c1=O	22.9
CC(C)C1=C2OC(N)=C(C#N)C(C#N)=C2C(C)CC1 (stereo not drawn)	9.98
COc1ccc(/C=C(/NC(=O)c2ccccc2)C(=O)NCc2ccco2)cc1	27
O=C1N=c2ccccc2=C1c1sc(Nc2cccc(O)c2)nc1O	15.1
CN1CCN(C(=O)C2=C[C@H](c3ccccc3)C[C@H](OCc3ccc(CO)cc3)O2)CC1	-26.5
C[n+]1cccc(/C=N/Nc2nc(Cl)c(C#N)c(Cl)c2Cl)c1.[Cl-]	6.86
Cc1cc(Nc2cccc(Cl)n2)n(-c2ccccc2)n1	-8.85
C(=N\n1cnnc1)/c1ccc(OC2CSC2)cc1	-9.61
O=C(Cc1ccccc1)NC(NC(=O)Cc1ccccc1)c1cccc([N+](=O)[O-])c1	4.27
O=C(c1cc(-c2ccc(F)cc2)no1)N1CCN(Cc2ccc3c(c2)OCO3)CC1	-19.5
Cc1cc(C)c2c(N)c(C(=O)Nc3ccccc3Br)sc2n1	13.4
CCOC(=O)c1ccc(NC(=O)CCNc2c(N3CCCC3)c(=O)c2=O)cc1	15.1
CCc1cc(C(=O)N2CCN(S(=O)(=O)c3cc(C)ccc3C)CC2)sc1C	11.8
COc1ccc(C(=O)Nc2ccc3oc(-c4cccnc4)nc3c2)cc1OC	12.7
CCN(CC)C(=O)N1CCN(S(=O)(=O)c2c(C)cc(C)cc2C)CC1	-5.06
Clc1ccc(-n2nnc(-c3cccnc3Cl)n2)cn1	-9.43
COc1cc(/C=N/NC(=O)COc2ccc([N+](=O)[O-])cc2)ccc1OCC(=O)N1CCOCC1	1.07
Cc1ccc(S(=O)(=O)NCC(=O)N2CCCC2C(=O)O)cc1 (stereo not drawn) (Tos-Gly-[ξP]-OH)	-1.84
Cc1ccc(C)c(C2NC(=O)c3ccccc3N2)c1 (stereo not drawn)	12.7
Cc1ccc(CNc2nc(C)c(C(=O)N(C)C)s2)cc1	4.98
Cc1ccc(OCC(=O)N/N=C/c2cn(Cc3ccccc3)c3ccccc23)cc1	15
CSCCC1NC2(C(=O)Nc3c(Cl)cccc32)[C@@H]2C(=O)N(C3CCCC3)C(=O)[C@H]12 (stereo partly drawn)	-5.23

Compound	hERG current change (%, negative = inhibition) at 10uM [%]
CCOC(=O)C1=C(C)NC2=C(C(=O)CCC2)C1c1ccc(O)c(OCC)c1 (stereo not drawn)	4.11
COc1ccc(NC(=O)CN(C)C(=O)c2ccc(-c3cccc(C(F)(F)F)c3)o2)cc1	10.1
CSc1nc(C)[nH]c(=O)c1C#N	19.1
COc1cc(NS(=O)(=O)c2ccc(NC(=O)CN3C(=O)c4ccccc4C3=O)cc2)nc(OC)n1	24.1
CSc1nnc(-c2ccccc2)c(-c2ccccc2)n1	-13.7
O=C(CNS(=O)(=O)c1ccccc1)N1CCN(C(=O)c2ccco2)CC1	-6.48
CN1CCN(Cc2cc(C(C)(C)C)c(O)c(C(C)(C)C)c2)CC1	-15.1
C=CCN(C(=O)c1cc(C)cc(C)c1)C1(C(=O)Nc2ccccc2)CCN(C(C)C)CC1	-14.4
COc1cc(S(=O)(=O)N2CCCCC2)ccc1NC(=O)/C=C/c1ccccc1	-16.8
COc1ccc(CNC(=O)C2CC(c3cc(C(F)(F)F)cc(C(F)(F)F)c3)=NO2)cc1 (stereo not drawn)	10.7
CC(=O)c1ccc(S(=O)(=O)N2CCN(c3ccccc3F)CC2)cc1	6.87
COc1ccc(CN2C(=O)c3cccnc3C2O)cc1 (stereo not drawn)	15.3
CCOC(=O)C(C(=O)NCc1cccc(OC)c1)c1ncc(C(F)(F)F)cc1Cl (stereo not drawn)	16.9
C=CC1=C(C(=O)O)N2C(=O)[C@@H](NC(=O)/C(=N\O)c3csc(N)n3)[C@H]2SC1	3.26
O=C1CC(=O)Nc2cc(S(=O)(=O)N3CCOc4ccc(Cl)cc43)ccc2N1	0.263
Cc1cc(C)n(/N=C/c2cccs2)c(=O)c1C#N	15.8
COc1ccccc1/C=C/C(=O)c1ccccc1	7.68
Cc1ccc(C)c(C(=O)CCC(=O)N2CCN(c3cccc(C(F)(F)F)c3)CC2)c1	1.54
Cc1ccc(CSc2nc3ccccc3cc2C=O)cc1	7.93
O=C(Nc1cc(S(=O)(=O)N2CCOCC2)ccc1N1CCCCC1)c1ccc(Cl)cc1	-1.07
Cc1cccc(OCC(=O)Nc2ccc(C(=O)O)cc2NC(=O)COc2cccc(C)c2)c1	6.64
